# Assay results reported in PubChem BioAssay AID485341 (National Center for Advancing Translational Sciences (NCATS), 2010).
# Among all 330,000 compounds or so, about 1,700 (0.52%) were called active. This list was built around the results that the source calls inconclusive (neither active nor inactive); the mix of calls is not that of the screen. Calls come from the whole dose curve; as a rule, active = well fitted inhibition curve with a large enough effect; inconclusive = small, poorly fitted or top-dose-only effect; inactive = no such curve, though single readings can be large or run the other way. Where the call is inconclusive, the potency comes from a doubtful curve fit.
# Biological target: Beta-lactamase (Escherichia coli (strain K12)) (UniProt P00811)
# UniProt P00811, sequence (P00811 whole entry, looked up): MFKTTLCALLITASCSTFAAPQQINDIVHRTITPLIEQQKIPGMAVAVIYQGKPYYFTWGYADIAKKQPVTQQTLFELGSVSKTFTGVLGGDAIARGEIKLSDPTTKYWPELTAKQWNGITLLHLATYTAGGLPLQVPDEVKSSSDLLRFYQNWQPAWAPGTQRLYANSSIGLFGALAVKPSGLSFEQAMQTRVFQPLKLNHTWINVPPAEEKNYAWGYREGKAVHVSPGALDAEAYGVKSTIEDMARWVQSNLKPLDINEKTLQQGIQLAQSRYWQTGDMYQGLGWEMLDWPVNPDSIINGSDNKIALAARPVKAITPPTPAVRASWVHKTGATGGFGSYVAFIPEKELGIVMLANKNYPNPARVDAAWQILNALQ
# Assay: qHTS Inhibitors of AmpC Beta-Lactamase (assay without detergent); note: nearly all actives have a fitted effect of over 20% in size;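 for activity change, negative = inhibition: plate controls were no compound for no effect and no enzyme for full effect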
# Conditions: AmpC nitrocefin hydrolysis, absorbance 480 nm, 0.0001% Triton; activity change, negative = inhibition: at 57.1 µM (top of the series) unless noted
# How it was run: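 AmpC (5.3 nM in the dispensed reagent) in 20 mM phosphate pH 7.0 with 0.01% (detergent screen) or 0.0001% Triton X-100 was preincubated with compounds for 15 min at room temperature. Nitrocefin was then added from an 800 uM solution, and hydrolysis was followed at 480 nm.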
# Potency is the fitted concentration of half-maximal effect; tags give direction and shape of the fitted curve.
Compound,Potency,"activity change, negative = inhibition"
C=CCNC(=O)c1cc(-c2ccccc2O)on1,"inconclusive: 1.41 µM [inhibitor, full curve, poor fit]",
CCCCOc1ccccc1NC(=O)Cn1c(-c2nonc2N)nc2ccccc21,"inconclusive: 3.55 µM [inhibitor, full curve, poor fit]",
CCSc1nnc(N2C(=O)CC(c3ccsc3)C3=C2CC(C)(C)CC3=O)s1 (stereo not drawn),"inconclusive: 0.501 µM [inhibitor, full curve, poor fit]",
CCc1ccc(N2C(=O)C3ON(c4ccccc4)C(c4ccco4)C3C2=O)cc1 (stereo not drawn),,inactive: -11.3%
O=c1oc2ccccc2c2c1C1O[C@](c3ccsc3)(Cc3c1ccc1ccccc31)O2,"inconclusive: 3.16 µM [inhibitor, single point]",
CC1=NN(C(=O)c2ccc(C)cc2)C(O)(C(F)(F)OC(F)(F)F)C1 (stereo not drawn),,inactive: -17.2%
CCCCN=C1NN=C(c2cc3ccccc3o2)CS1,active: 14.1 µM,
CC(C)Cn1c(CN(Cc2ccccc2)Cc2ccccc2)nc2c1c(=O)n(C)c(=O)n2C,active: 3.55 µM,
COc1ccc(S(=O)(=O)NC2CC(=O)N(c3ccccc3)C2)cc1C (stereo not drawn),"inconclusive: 39.8 µM [inhibitor, single point]",
CC1CCc2c(sc(NC(=O)c3ccc(-c4ccccc4[N+](=O)[O-])o3)c2C#N)C1 (stereo not drawn),"inconclusive: 1.78 µM [inhibitor, full curve, poor fit]",
c1ccc(Nc2nc(NCC3CCCO3)c3ccccc3n2)cc1 (stereo not drawn),,inactive: -16.2%
O=C(Cc1cccc2ccccc12)NC(NC(=S)Nc1ccccc1Cl)C(Cl)(Cl)Cl (stereo not drawn),"inconclusive: 31.6 µM [inhibitor, single point]",
CCC(=O)Nc1cccc(-c2nc3ccccc3o2)c1,"inconclusive: 6.31 µM [inhibitor, single point]",
CC(=O)CCSc1nnc(-c2cccc(S(=O)(=O)N3CCOCC3)c2)o1,"inconclusive: 39.8 µM [inhibitor, single point]",
O=C(CSc1nc2ccccc2s1)N1c2ccccc2Sc2ccccc21,"inconclusive: 39.8 µM [inhibitor, single point]",
Cc1ccc2cc(C(c3nnnn3C3CCCC3)N(Cc3ccco3)Cc3cccs3)c(=O)[nH]c2c1 (stereo not drawn),"inconclusive: 0.631 µM [inhibitor, full curve, poor fit]",
COc1ccccc1NC(=O)c1ccc(-c2ccccc2[N+](=O)[O-])o1,"inconclusive: 22.4 µM [inhibitor, single point]",
CN(CC(=O)Nc1ccc(Cl)cc1)C(=O)CCc1nc2sc3c(c2c(=O)[nH]1)CCCC3,,inactive: -36%
Cc1cccc(N2CCN(C(=O)c3nn(C)c4c3CS(=O)(=O)c3ccccc3-4)CC2C)c1 (stereo not drawn),,inactive: 52%
COCCN(C(=O)Cc1cccs1)C(C(=O)NCc1ccc(OC)cc1)c1ccc(C(C)C)cc1 (stereo not drawn),"inconclusive: 3.98 µM [inhibitor, single point]",
O=C(Cn1nnc(-c2ccccc2F)n1)Nc1ccc2c(c1)OCCO2,"inconclusive: 22.4 µM [inhibitor, partial curve]",
Cc1ccccc1NC(=O)CSc1nnc(C)c2ccccc12,,inactive: -5.21%
Cc1cc(NS(=O)(=O)c2ccc(NC(=O)COc3ccccc3C(C)(C)C)cc2)no1,"inconclusive: 39.8 µM [inhibitor, single point]",

Compound,Potency,"activity change, negative = inhibition"
O=C(CSc1nnc(SCc2cccc3ccccc23)s1)N/N=C/C=C/c1ccccc1[N+](=O)[O-],active: 14.1 µM,
CN1C(=O)C2(c3ccccc31)c1c(oc3ccccc3c1=O)C(=O)N2CCCO (stereo not drawn),,inactive: -0.254%
O=C(Nc1cccc2ncccc12)c1ccc([N+](=O)[O-])o1,,inactive: -4.82%
CCN(CC)CC#CC(OC)(c1ccccc1)c1ccccc1,,inactive: 88%
N#CCCn1ccc(NC(=O)c2ccc(Cl)cc2)n1,"inconclusive: 0.282 µM [inhibitor, full curve, poor fit]",
Nc1ccc(S(=O)(=O)c2ccccc2)nc1,,inactive: -15.2%
Cc1ccccc1NC(=S)NC(=O)/C=C/c1ccco1,active: 5.62 µM,
O=C(c1ccccc1)c1ccc2nc[nH]c2c1,"inconclusive: 6.31 µM [inhibitor, single point]",
Cc1nc2ccccn2c1C(=O)NNC(=S)Nc1ccc(Cl)cc1,"inconclusive: 35.5 µM [inhibitor, single point]",
OC(COc1ccc2ccccc2c1)CN1CCN(c2ccc(F)cc2)CC1 (stereo not drawn),active: 39.8 µM,
COC(=O)CC1c2ccccc2S(=O)(=O)N1Cc1ccccc1 (stereo not drawn),,inactive: -6.03%
CCc1ccc(C(=O)NCc2cccs2)s1,,inactive: -19.8%
Oc1csc(Cc2nc(-c3ccccc3F)cs2)n1,"inconclusive: 39.8 µM [inhibitor, single point]",
COc1cc(/C=C(/C#N)c2ccc(F)cc2)ccc1Oc1ccc([N+](=O)[O-])cn1,active: 28.2 µM,
Cc1ccc(-c2cc(C(=O)NCCN3CCOCC3)c3ccccc3n2)o1,,inactive: 1.19%
Cc1cc(C)[n+]2n1C(=O)C(c1ccccc1)=C2[O-],inactive,
O=C(NNC(=O)c1ccccc1F)c1cccc(S(=O)(=O)N2CCc3ccccc32)c1,"inconclusive: 8.91 µM [inhibitor, single point]",
Cc1cc(C(=O)N2CCCCCC2)cs1,"inconclusive: 1.12 µM [inhibitor, partial curve, poor fit]",
O=C(Nc1ccc(Cl)cn1)c1ccc(COCC(F)(F)C(F)F)o1,"inconclusive: 0.141 µM [inhibitor, full curve, poor fit]",
CC(C)c1nc(SCC(=O)Nc2ccc([N+](=O)[O-])cc2Br)n[nH]1,"inconclusive: 8.91 µM [inhibitor, single point]",
O=[N+]([O-])c1cc(C(F)(F)F)cc([N+](=O)[O-])c1NCCNC(=S)Nc1ccc(Cl)c(Cl)c1,"inconclusive: 10 µM [inhibitor, partial curve]",
O=C1OC2(c3ccccc31)c1cc(I)c(O)c(I)c1Oc1c2cc(I)c(O)c1I,active: 25.1 µM,
CCCCN(C(=O)CSc1nnc(Nc2ccc(C)c(C)c2)s1)c1c(N)n(Cc2ccccc2)c(=O)[nH]c1=O,"inconclusive: 1.41 µM [inhibitor, full curve, poor fit]",

Compound,Potency,"activity change, negative = inhibition"
COc1ccc2c(c1OC)C(=O)OC2C1c2c(cc3c(c2OC)OCO3)CCN1C (stereo not drawn),"inconclusive: 6.31 µM [inhibitor, single point]",
Cn1c(SCc2ccc(Br)cc2)nnc1-c1ccncc1,"inconclusive: 1.26 µM [inhibitor, partial curve, poor fit]",
CC(=O)C1=NN(c2ccccc2)C(c2cccs2)N1c1ccc(N(C)C)cc1 (stereo not drawn),,inactive: -34%
O=c1c2ccccc2nc(/C=C/c2ccccc2O)n1-c1ccccc1O,"inconclusive: 11.2 µM [inhibitor, partial curve, poor fit]",
C[C@H](NC(=O)c1nc[nH]c1C(=O)N[C@@H](CCCCNC(=O)OC(C)(C)C)C(=O)OC(C)(C)C)C(=O)OCc1ccccc1,,inactive: 108%
COc1cc(/C=N/NC(=O)CN(Cc2ccccc2)S(=O)(=O)c2ccc3c(c2)OCCO3)ccc1O,"inconclusive: 3.55 µM [inhibitor, full curve, poor fit]",
Cc1ccc(C2=NN3C(C(=O)c4ccccc4)Oc4ccccc4C3C2)cc1 (stereo not drawn),"inconclusive: 2.51 µM [inhibitor, partial curve, poor fit]",
Cc1ccc(SCC(=O)Nc2ccc(N3CCN(c4ccccc4)CC3)c(F)c2)cc1,,inactive: -9.46%
Cc1ccc(C(=O)CSC2=C(C#N)C(c3ccco3)C3=C(CCCC3=O)N2)cc1 (stereo not drawn),"inconclusive: 7.94 µM [inhibitor, full curve, poor fit]",
Cc1cc(O)c2c(c1O)C(=O)[C@]13C(=C2O)C(=O)[C@@H]2[C@@H](O)[C@H]1[C@@H]1[C@H](O)[C@H]3C(=O)C3=C(O)c4c(O)cc(C)c(O)c4C(=O)[C@]312,active: 28.2 µM,
Cc1ccc(NC(=O)CSc2nc(O)cc(=O)n2-c2ccc(C)cc2)cc1,active: 12.6 µM,
Cc1ncc([N+](=O)[O-])n1CC(=O)NC1CCCC1,"inconclusive: 6.31 µM [inhibitor, single point]",
CC1CCN(C2=C(NS(=O)(=O)c3ccc(Cl)cc3)C(=O)c3ccccc3C2=O)CC1,"inconclusive: 10 µM [inhibitor, partial curve]",
Cc1ccc2nc(/C(C#N)=C/c3ccc(O)c(O)c3)[nH]c2c1,active: 20 µM,
Cc1ccc(CNc2nc(C)c(C(=O)N(C)C)s2)cc1,,inactive: 6.52%
COc1cccc(C(=O)N/N=C2/SCC(=O)N2CCc2ccc(OC)c(OC)c2)c1,"inconclusive: 0.251 µM [inhibitor, full curve, poor fit]",
O=C(O)c1ccc(CSc2ncn[nH]2)cc1,"inconclusive: 5.62 µM [inhibitor, single point]",
Oc1ccc(/C=C/c2ccc3cccc(O)c3n2)cc1Br,"inconclusive: 31.6 µM [inhibitor, partial curve]",
COc1ccc(C)cc1NC(=O)Nc1ccc2c(c1)CCC2,"inconclusive: 12.6 µM [inhibitor, partial curve]",
O=C(CSc1ncnc2nc[nH]c12)Nc1nnc(SCc2ccc(Cl)c(Cl)c2)s1,"inconclusive: 2.82 µM [inhibitor, single point]",
CCOC(=O)c1ccc(N2C(=O)c3n[nH]c(C)c3C2c2ccco2)cc1 (stereo not drawn),"inconclusive: 7.94 µM [inhibitor, full curve, poor fit]",
Fc1ccccc1NC(=S)N/N=C/c1ccccc1Br,"inconclusive: 12.6 µM [inhibitor, partial curve, poor fit]",
